Assay results: publication PMC12193154, “Effect of Mutations in the C-Terminal 22–24 Domains of Filamin C Associated with Cardio- and Myopathies on Its Interaction with Small Heat Shock Protein HspB7” (International Journal of Molecular Sciences, 2025)
Results are given in words; binding and its absence hold for the method and conditions named. Some entries that bind do so weakly or less than the wild type.

Sequences of proteins named here, by UniProt entry; tags and fusion partners are left off. A change or cut given only in a name is not applied to a line headed by its entry. Residues count along the entry.
UniProt Q9UBY9: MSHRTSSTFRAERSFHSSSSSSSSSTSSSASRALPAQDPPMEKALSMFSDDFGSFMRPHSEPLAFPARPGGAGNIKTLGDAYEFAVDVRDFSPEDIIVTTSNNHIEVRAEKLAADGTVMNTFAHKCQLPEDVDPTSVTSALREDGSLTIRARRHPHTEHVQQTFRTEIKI
α-crystallin domain of HspB7 (AcdB7) containing residues 77-155: residues 77-155 of Q9UBY9

How the values were obtained:
[1] = molecular target: T1, small heat shock protein HspB7 (full-size) (UniProt Q9UBY9 1-170); assay: SEC; equimolar mixture of FLNC fragment and AcdB7 (30 µM each) or full-size HspB7, preincubated 30 min at 30 °C, Superdex 200 10/300, 0.5 mL/min, 50 mM Na-phosphate pH 7.4, 150 mM NaCl, 2 mM DTT, room temperature; peak fractions analysed by SDS gel; both purified
T1 construct: small heat shock protein HspB7, full-size; also called full-size HspB7; full-length HspB7; source: recombinant, expressed and purified as described earlier [25,34]

[2] = molecular target: α-crystallin domain of HspB7 (AcdB7) containing residues 77-155 (UniProt Q9UBY9); assay: as above
[3] = molecular target: T1, small heat shock protein HspB7 …; assay: cross-linking; isolated proteins or equimolar mixture, 30 min at 30 °C in 25 mM HEPES/NaOH pH 7.4, 100 mM NaCl, 2 mM DTT, then 0.0125% glutaraldehyde 30 min at 30 °C; SDS gel and anti-HspB7 immunoblot; both purified
[4] = molecular target: α-crystallin domain of HspB7 (AcdB7) containing residues 77-155 (UniProt Q9UBY9); assay: as above
[5] = molecular target: T1, small heat shock protein HspB7 …; assay: native gel or EMSA; fixed HspB7 (25 or 30 µM) or AcdB7 (35 µM) in 20 mM Tris-acetate pH 7.6, 100 mM NaCl titrated with 0-120 µM FLNC fragment, 30 min at 30 °C; native 12.5% polyacrylamide gel, Tris-glycine pH 8.6; band intensities, semi quantitative, apparent affinity; both purified
[6] = molecular target: α-crystallin domain of HspB7 (AcdB7) containing residues 77-155 (UniProt Q9UBY9); assay: as above

binding [1] | binding [2] | binding [3] | binding [4] | binding [6] | Binder | binding [5]
binds | binds | binds | binds |  | wild-type (WT) C-terminal fragment of human filamin C (FLNC) containing immunoglobulin-like domains 22-24 (domain or fragment, UniProt Q14315 2403-2725, looked up, human filamin C (FLNC), Uniprot Q14315, immunoglobulin-like domains 22-24, amino acid residues 2403-2725; Dimer by SEC and cross-linking; also called WT FLNC; WT FLNC fragment; source: recombinant, expressed and purified as described earlier [23]; (ion-exchange and size-exclusion chromatography)) SLSDDARRLTVTSLQETGLKVNQPASFAVQLNGARGVIDARVHTPSGAVEECYVSELDSDKHTIRFIPHENGVHSIDVKFNGAHIPGSPFKIRVGEQSQAGDPGLVSAYGPGLEGGTTGVSSEFIVNTLNAGSGALSVTIDGPSKVQLDCRECPEGHVVTYTPMAPGNYLIAIKYGGPQHIVGSPFKAKVTGPRLSGGHSLHETSTVLVETVTKSSSSRGSSYSSIPKFSSDASKVVTRGPGLSQAFVGQKNSFTVDCSKAGTNMMMVGVHGPKTPCEEVYVKHMGNRVYNVTYTVKEKGDYILIVKWGDESVPGSPFKVKVP | 
binds | binds | binds | binds |  | EN/D mutant (p.Glu2472_Asn2473delinsAsp) of the FLNC fragment containing immunoglobulin-like domains 22-24 (domain or fragment, human, UniProt Q14315 2403-2725, looked up, human filamin C (FLNC), Uniprot Q14315, residues 2403-2725, with Glu2472 and Asn2473 replaced by Asp (mutation associated with restrictive cardiomyopathy); also called c.7416_7418delGAA; source: recombinant, expressed and purified as described earlier [23]; (ion-exchange and size-exclusion chromatography)) SLSDDARRLTVTSLQETGLKVNQPASFAVQLNGARGVIDARVHTPSGAVEECYVSELDSDKHTIRFIPHDGVHSIDVKFNGAHIPGSPFKIRVGEQSQAGDPGLVSAYGPGLEGGTTGVSSEFIVNTLNAGSGALSVTIDGPSKVQLDCRECPEGHVVTYTPMAPGNYLIAIKYGGPQHIVGSPFKAKVTGPRLSGGHSLHETSTVLVETVTKSSSSRGSSYSSIPKFSSDASKVVTRGPGLSQAFVGQKNSFTVDCSKAGTNMMMVGVHGPKTPCEEVYVKHMGNRVYNVTYTVKEKGDYILIVKWGDESVPGSPFKVKVP | 
binds | binds | binds | binds | binds weakly | ΔPGL mutant (p.P2643_L2645del) of the FLNC fragment containing immunoglobulin-like domains 22-24 (domain or fragment, human, UniProt Q14315 2403-2725, looked up, human filamin C (FLNC), Uniprot Q14315, residues 2403-2725, with deletion of the tripeptide 2643-PGL-2645 (mutation associated with restrictive cardiomyopathy); also called ΔPGL FLNC; c.7927_7935del; source: recombinant, expressed and purified as described earlier [23]; (ion-exchange and size-exclusion chromatography)) SLSDDARRLTVTSLQETGLKVNQPASFAVQLNGARGVIDARVHTPSGAVEECYVSELDSDKHTIRFIPHENGVHSIDVKFNGAHIPGSPFKIRVGEQSQAGDPGLVSAYGPGLEGGTTGVSSEFIVNTLNAGSGALSVTIDGPSKVQLDCRECPEGHVVTYTPMAPGNYLIAIKYGGPQHIVGSPFKAKVTGPRLSGGHSLHETSTVLVETVTKSSSSRGSSYSSIPKFSSDASKVVTRGSQAFVGQKNSFTVDCSKAGTNMMMVGVHGPKTPCEEVYVKHMGNRVYNVTYTVKEKGDYILIVKWGDESVPGSPFKVKVP | binds weakly
no binding |  | no binding |  |  | Wmut (p.W2710X) mutant of the FLNC fragment containing immunoglobulin-like domains 22-24 (domain or fragment, UniProt Q14315 2403-2709) SLSDDARRLTVTSLQETGLKVNQPASFAVQLNGARGVIDARVHTPSGAVEECYVSELDSDKHTIRFIPHENGVHSIDVKFNGAHIPGSPFKIRVGEQSQAGDPGLVSAYGPGLEGGTTGVSSEFIVNTLNAGSGALSVTIDGPSKVQLDCRECPEGHVVTYTPMAPGNYLIAIKYGGPQHIVGSPFKAKVTGPRLSGGHSLHETSTVLVETVTKSSSSRGSSYSSIPKFSSDASKVVTRGPGLSQAFVGQKNSFTVDCSKAGTNMMMVGVHGPKTPCEEVYVKHMGNRVYNVTYTVKEKGDYILIVK | no binding (tested: 0-120 µM FLNC fragment)
